# Assay results taken from PubChem BioAssay (NCATS).
# Values joined by “and” are separate entries in the source; they are usually repeats but may differ in a detail not shown here. Equal entries are not always repeated. The inconclusive results got no clear call from the source; some entries with a clear call stand among them for comparison. For some assays here: Where the call is inconclusive, the potency comes from a doubtful curve fit. Active and inactive are the calls of the source. The call rests on the fitted dose curve; in most records, active means well fitted curve in the direction sought with a large enough effect; inconclusive means small, poorly fitted or top-dose-only effect, or another doubt; inactive means no such curve, though single readings can be large; an effect the other way counts as inactive or inconclusive.
# Assays:
# [1] = qHTS of pediatric cancer cell lines to identify multiple opportunities for drug repurposing: Primary screen for SK-N-MC cells (AID 1347093); settings: SK-N-MC viability, CellTiter-Glo luminescence, 48 h; activity change, negative = cytotoxic: at 46 µM (top of the series)
# Procedure, shortened: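 Metabolically active cells were quantified by ATP-dependent luminescence (CellTiter-Glo, 15 min at room temperature) following 48 h treatment. Cells had been plated at 500-1,000 per well and settled for 5 h beforehand.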
# [2] = qHTS of pediatric cancer cell lines to identify multiple opportunities for drug repurposing: Primary screen for SK-N-SH cells (AID 1347098); further: nearly all actives have a fitted effect of over 65% in size;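 on activity change, negative = cytotoxic: DMSO served as neutral control and bortezomib at 2.3 µM as positive control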
# Procedure, shortened: (§1)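 Cells (500-1,000/well) rested 5 h, then received compounds for 48 h; metabolically active cells were measured by CellTiter-Glo luminescence. Final concentrations spanned up to 46 µM (MIPE, 11-point) or 0.59 nM-46 µM (NPC, 8-point) in primary screens, 11-point in follow-ups.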
# [3] = qHTS of pediatric cancer cell lines to identify multiple opportunities for drug repurposing: Primary screen for RD cells (AID 1347104); further: nearly all actives have a fitted effect of over 55% in size
# Procedure, shortened: (§2)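 Cells seeded at 500-1,000 cells/well in growth media, rested 5 hours at 37 degrees C, 5% CO2, then dosed; MIPE compounds at 11-point (from 0.78 nM) and NPC at 8-point (from 0.59 nM) final concentrations. Viability by CellTiter-Glo luminescence after 48 hours.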
# [4] = qHTS of pediatric cancer cell lines to identify multiple opportunities for drug repurposing: Primary screen for MG 63 (6-TG R) cells (AID 1347105); settings: MG 63 (6-TG R) viability, CellTiter-Glo, 48 h; activity change, negative = cytotoxic: at 46 µM (top of the series); further: nearly all actives have a fitted effect of over 50% in size
# Procedure, shortened: as §2
# [5] = qHTS of pediatric cancer cell lines to identify multiple opportunities for drug repurposing: Primary screen for Rh41 cells (AID 1347108); further: nearly all actives have a fitted effect of over 70% in size;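 on activity change, negative = cytotoxic: luminescence drop marks cytotoxic hits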
# Procedure, shortened: as §2
# [6] = qHTS of pediatric cancer cell lines to identify multiple opportunities for drug repurposing: Primary screen for BT-37 cells (AID 1347094)
# Procedure, shortened: as §2
# [7] = qHTS of pediatric cancer cell lines to identify multiple opportunities for drug repurposing: Primary screen for LAN-5 cells (AID 1347100); settings: LAN-5 neuroblastoma viability, CellTiter-Glo luminescence, 48 h; activity change, negative = cytotoxic: at 46 µM (top of the series)
# Procedure, shortened: as §1
# [8] = qHTS of pediatric cancer cell lines to identify multiple opportunities for drug repurposing: Primary screen for U-2 OS cells (AID 1347096); further: nearly all actives have a fitted effect of over 50% in size
# Procedure, shortened: as §1
# [9] = qHTS of pediatric cancer cell lines to identify multiple opportunities for drug repurposing: Primary screen for control Hh wild type fibroblast cells (AID 1347106); further: nearly all actives have a fitted effect of over 55% in size
# Procedure, shortened: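 Cells (500-1,000/well) in growth media were settled 5 h at 37 degrees C, then given compounds for 48 h. Viability was read as CellTiter-Glo luminescence. Primary runs used MIPE at 11 points (0.78 nM-46 µM) and NPC at 8 points (0.59 nM-46 µM); follow-ups used 11 points.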
# [10] = qHTS of pediatric cancer cell lines to identify multiple opportunities for drug repurposing: Primary screen for Rh30 cells (AID 1347107); further: nearly all actives have a fitted effect of over 75% in size
# Procedure, shortened: as §1
# [11] = qHTS of pediatric cancer cell lines to identify multiple opportunities for drug repurposing: Primary screen for NB-EBc1 cells (AID 1347095)
# Procedure, shortened: as §2
# [12] = qHTS of pediatric cancer cell lines to identify multiple opportunities for drug repurposing: Primary screen for Saos-2 cells (AID 1347097); further: nearly all actives have a fitted effect of over 40% in size
# Procedure, shortened: as §2
# [13] = qHTS of pediatric cancer cell lines to identify multiple opportunities for drug repurposing: Primary screen for Rh18 cells (AID 1347102); further: nearly all actives have a fitted effect of over 65% in size
# Procedure, shortened: as §1
# [14] = qHTS of pediatric cancer cell lines to identify multiple opportunities for drug repurposing: Primary screen for OHS-50 cells (AID 1347103); further: nearly all actives have a fitted effect of over 40% in size
# Procedure, shortened: as §1
# [15] = qHTS of pediatric cancer cell lines to identify multiple opportunities for drug repurposing: Primary screen for NB1643 cells (AID 1347099); further: nearly all actives have a fitted effect of over 50% in size
# Procedure, shortened: as §2
# [16] = qHTS of pediatric cancer cell lines to identify multiple opportunities for drug repurposing: Primary screen for BT-12 cells (AID 1347101); further: nearly all actives have a fitted effect of over 25% in size
# Procedure, shortened: as §1
# [17] = qHTS of pediatric cancer cell lines to identify multiple opportunities for drug repurposing: Confirmatory screen for NB1643 cells (AID 1347109); settings: NB1643 neuroblastoma cell viability; activity change, negative = cytotoxic: at 45.9 µM (top of the series); further: nearly all actives have a fitted effect of over 45% in size
# Procedure, shortened: as §1
# Potency means the concentration at half of the fitted maximal effect; tags describe the fitted curve by direction and shape.
compound,measurement,setting,value
Nc1cccc2c1CN(C1CCC(=O)NC1=O)C2=O (stereo not drawn),Potency,[1],inactive
same,Potency,[2],inactive
same,Potency,[3],inactive
same,Potency,[4],inactive
same,Potency,[5],inactive
CC(C)(S)[C@@H](N)C(=O)O,Potency,[1],inactive
same,Potency,[6],inactive
same,Potency,[7],inactive
Nc1ncnc2c1c(-c1cccc(OCc3ccccc3)c1)cn2C1CC(CN2CCCC2)C1 (stereo not drawn),Potency,[1],active: 0.662 µM
same,Potency,[6],"inconclusive: 10.9 µM [cytotoxic, partial curve]"
same,Potency,[8],"inconclusive: 18.7 µM [cytotoxic, single point]"
same,Potency,[7],active: 1.32 µM
same,Potency,[3],active: 5.26 µM
same,Potency,[9],"inconclusive: 37.2 µM [cytotoxic, partial curve, poor fit]"
same,Potency,[10],"inconclusive: 5.9 µM [cytotoxic, partial curve]"
CN(C)CCN1C(=O)c2cccc3cc(N)cc(c23)C1=O,Potency,[1],"inconclusive: 10.5 µM [cytotoxic, partial curve, poor fit]"
same,Potency,[11],active: 1.87 µM
same,Potency,[8],"inconclusive: 37.2 µM [cytotoxic, single point]"
same,Potency,[12],"inconclusive: 5.26 µM [cytotoxic, partial curve, poor fit]"
same,Potency,[13],"inconclusive: 26.4 µM [cytotoxic, single point]"
same,Potency,[14],active: 24.3 µM
same,Potency,[4],"inconclusive: 14.8 µM [cytotoxic, partial curve]"
same,Potency,[9],"inconclusive: 26.4 µM [cytotoxic, single point]"
same,Potency,[10],"inconclusive: 23.5 µM [cytotoxic, single point]"
same,Potency,[5],active: 23.5 µM
NC(=NCc1ccccc1)NC(=O)c1nc(Cl)c(N)nc1N,Potency,[1],active: 1.18 µM
same,Potency,[8],inactive
same,Potency,[15],active: 9.35 µM
same,Potency,[16],inactive
same,Potency,[3],active: 26.4 µM
same,Potency,[4],"inconclusive: 29.6 µM [cytotoxic, single point]"
same,Potency,[10],"inconclusive: 20.9 µM [cytotoxic, single point]"
same,Potency,[5],"inconclusive: 29.6 µM [cytotoxic, single point]"
CC(C)c1ccccc1Cc1cc(C(=O)Nc2ccc(S(=O)(=O)c3ccccc3C(C)(C)C)cc2)c(O)c(O)c1O,Potency,[1],"inconclusive: 37.2 µM [cytotoxic, single point]"
same,Potency,[2],"inconclusive: 42.9 µM [cytotoxic, single point]"
same,Potency,[15],"inconclusive: 26.4 µM [cytotoxic, single point]"
same,Potency,[13],active: 18.7 µM
same,Potency,[14],active: 24.3 µM
same,Potency,[3],"inconclusive: 18.7 µM [cytotoxic, partial curve]"
same,Potency,[4],"inconclusive: 29.6 µM [cytotoxic, single point]"
same,Potency,[5],active: 18.7 µM
O=C(NCCCCN1CCOCC1)c1cc2ccccc2o1,Potency,[1],"inconclusive: 37.2 µM [cytotoxic, partial curve, poor fit]"
same,Potency,[12],inactive
same,Potency,[15],inactive
same,Potency,[16],inactive
same,Potency,[10],"inconclusive: 11.8 µM [cytotoxic, partial curve, poor fit]"
COc1cc(NCc2ccc3nc(N)nc(N)c3c2C)cc(OC)c1OC,Potency,[1],active: 332 nM and active: 11.9 nM
same,Potency,[11],"active: 3.72 µM and inconclusive: 42.2 nM [cytotoxic, full curve, poor fit]"
same,Potency,[8],"active: 3.72 µM and inconclusive: 133 nM [cytotoxic, full curve, poor fit]"
same,Potency,[12],"inconclusive: 0.211 µM [cytotoxic, full curve, poor fit]"
same,Potency,[2],"inconclusive: 24.1 µM [cytotoxic, partial curve] and inconclusive: 38.6 µM [cytotoxic, single point]"
same,Potency,[15],"inconclusive: 16.8 µM [cytotoxic, single point]"
same,Potency,[7],"active: 16.6 µM and inconclusive: 26.6 nM [cytotoxic, full curve, poor fit]"
same,Potency,[14],"inconclusive: 0.123 µM [cytotoxic, full curve]"
same,Potency,[4],"inconclusive: 23.5 µM [cytotoxic, partial curve, poor fit]"
same,Potency,[10],"inconclusive: 3.72 µM [cytotoxic, full curve] and inconclusive: 106 nM [cytotoxic, full curve]"
same,Potency,[5],"inconclusive: 11.8 µM [cytotoxic, partial curve] and inconclusive: 266 nM [cytotoxic, full curve, poor fit]"
O=C(O)CCNC(=O)c1ccc(N=Nc2ccc(O)c(C(=O)O)c2)cc1,Potency,[1],"inconclusive: 7.5 nM [cytotoxic, partial curve, poor fit] and inconclusive: 37.2 µM [cytotoxic, single point]"
same,Potency,[11],inactive
same,Potency,[2],"inconclusive: 8.64 µM [cytotoxic, partial curve, poor fit] and inconclusive: 19.2 µM [cytotoxic, partial curve, poor fit]"
same,Potency,[14],inactive
CCOC(=O)N1c2ccc(C(F)(F)F)cc2[C@@H](N(Cc2cc(C(F)(F)F)cc(C(F)(F)F)c2)C(=O)OC)C[C@H]1CC,Potency,[1],"inconclusive: 29.6 µM [cytotoxic, single point]"
same,Potency,[6],"inconclusive: 13.7 µM [cytotoxic, partial curve]"
same,Potency,[8],inactive
same,Potency,[12],"inconclusive: 11.8 µM [cytotoxic, partial curve]"
same,Potency,[2],"inconclusive: 38.3 µM [cytotoxic, single point]"
same,Potency,[7],"inconclusive: 20.9 µM [cytotoxic, single point]"
same,Potency,[16],"inconclusive: 19.3 µM [cytotoxic, partial curve]"
same,Potency,[13],"inconclusive: 4.69 µM [cytotoxic, partial curve, poor fit]"
same,Potency,[3],inactive
same,Potency,[10],"inconclusive: 10.5 µM [cytotoxic, partial curve, poor fit]"
same,Potency,[5],"inconclusive: 18.7 µM [cytotoxic, partial curve]"
CCN(C)C(=O)Oc1cccc([C@H](C)N(C)C)c1,Potency,[1],inactive
same,Potency,[8],inactive
same,Potency,[4],inactive
Nc1ccc(S(=O)(=O)Nc2ccccn2)cc1,Potency,[1],"inconclusive: 37.2 µM [cytotoxic, single point]"
same,Potency,[15],inactive
same,Potency,[13],inactive
same,Potency,[4],inactive
CCCc1nc(C(C)(C)O)c(C(=O)O)n1Cc1ccc(-c2ccccc2-c2nn[nH]n2)cc1,Potency,[1],"inconclusive: 23.5 µM [cytotoxic, partial curve, poor fit]"
same,Potency,[6],inactive
same,Potency,[2],"inconclusive: 34.1 µM [cytotoxic, single point]"
same,Potency,[15],"inconclusive: 37.2 µM [cytotoxic, single point]"
same,Potency,[14],inactive
NC(=O)c1cccnc1,Potency,[1],"inconclusive: 37.2 µM [cytotoxic, single point]"
same,Potency,[12],"inconclusive: 13.3 µM [cytotoxic, partial curve, poor fit] and inconclusive: 18.7 µM [cytotoxic, partial curve]"
same,Potency,[2],"inconclusive: 24.1 µM [cytotoxic, partial curve]"
same,Potency,[13],inactive
same,Potency,[9],"inconclusive: 18.7 µM [cytotoxic, partial curve]"
same,Potency,[17],"inconclusive: 10.4 µM [cytotoxic, partial curve, poor fit]"
N#CC(=C1Nc2ccccc2S1)c1ccnc(OCc2ccc(CN3CCOCC3)cc2)n1,Potency,[1],active: 0.0053 µM
same,Potency,[8],"inconclusive: 23.5 µM [cytotoxic, partial curve]"
same,Potency,[12],active: 0.0148 µM
same,Potency,[15],active: 0.0526 µM
same,Potency,[7],active: 1.48 µM
same,Potency,[16],active: 0.172 µM
same,Potency,[13],"inconclusive: 1.32 µM [cytotoxic, partial curve, poor fit]"
same,Potency,[3],active: 0.662 µM
same,Potency,[9],"inconclusive: 23.5 µM [cytotoxic, partial curve]"
same,Potency,[10],"inconclusive: 3.72 µM [cytotoxic, partial curve]"
same,Potency,[5],"inconclusive: 0.0047 µM [cytotoxic, full curve, poor fit]"
same,Potency,[17],"inconclusive: 16.5 µM [cytotoxic, partial curve, poor fit]"
CCc1ccc(CCOc2ccc(CC3SC(=O)NC3=O)cc2)nc1 (stereo not drawn),Potency,[1],"inconclusive: 37.2 µM [cytotoxic, single point]"
same,Potency,[15],"inconclusive: 4.18 µM [cytotoxic, full curve]"
same,Potency,[7],inactive
same,Potency,[16],"inconclusive: 11 µM [cytotoxic, partial curve]"
same,Potency,[14],"inconclusive: 21.9 µM [cytotoxic, partial curve, poor fit]"
same,Potency,[5],inactive
Cn1cc(-c2ccc3ncc(Cc4ccc5ncccc5c4)n3n2)cn1,Potency,[1],"inconclusive: 33.2 µM [cytotoxic, single point]"
same,Potency,[12],"inconclusive: 18.7 µM [cytotoxic, partial curve]"
same,Potency,[13],inactive
same,Potency,[14],inactive
same,Potency,[5],"inconclusive: 11.8 µM [cytotoxic, partial curve]"
CCNC(=O)[C@H]1O[C@@H](n2cnc3c(N)nc(NCCc4ccc(CCC(=O)O)cc4)nc32)[C@H](O)[C@H]1O,Potency,[1],inactive
same,Potency,[12],"inconclusive: 5.26 µM [cytotoxic, partial curve, poor fit]"
same,Potency,[14],"inconclusive: 1.22 µM [cytotoxic, partial curve]"
CON=C(C(=O)N[C@@H]1C(=O)N2C(C(=O)O)=C(Cn3ccc(=N)n3CCO)CS[C@H]12)c1csc(N)n1,Potency,[1],"inconclusive: 23.5 µM [cytotoxic, single point]"
same,Potency,[6],inactive
same,Potency,[2],"inconclusive: 42.9 µM [cytotoxic, single point]"
same,Potency,[15],"inconclusive: 18.7 µM [cytotoxic, single point]"
same,Potency,[16],inactive
same,Potency,[13],inactive
COc1nc(N)nc2c1ncn2[C@@H]1O[C@H](CO)[C@@H](O)[C@@H]1O,Potency,[1],"inconclusive: 37.2 µM [cytotoxic, single point]"
same,Potency,[8],inactive
same,Potency,[15],"inconclusive: 16.6 µM [cytotoxic, partial curve, poor fit]"
same,Potency,[7],"inconclusive: 13.2 µM [cytotoxic, partial curve]"
same,Potency,[16],"inconclusive: 21.7 µM [cytotoxic, partial curve]"
same,Potency,[17],inactive
